Laboratory results taken from the supplement of paper PMC8728848.
Some of the results follow.

Columns and labels:
Assay in all cases: glycan array binding signal (z-score within array); higher = stronger binding
Settings in all cases: glycan notation: IUPAC condensed, linker removed
[1] = biological target: GlcNAc(b1-3)GalNAc
Method in brief: (§1)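 The binding signal is a Z-score computed within each array. Data were drawn from 3228 arrays in the Consortium for Functional Glycomics database, restricted to those with a known protein sequence. Scores were averaged over arrays of the same protein sequence at different concentrations or buffers, and over linkers, and negative values can be taken as non-binding.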

[2] = biological target: GlcNAc(b1-3)Man
Method in brief: as §1

[3] = biological target: GlcNAc(b1-3)[GlcNAc(b1-4)][GlcNAc(b1-6)]GlcNAc
Method in brief: as §1

[4] = biological target: GlcNAc(b1-3)[GlcNAc(b1-6)]Gal(b1-4)GlcNAc
Method in brief: as §1

[5] = biological target: GlcNAc(b1-3)[GlcNAc(b1-6)]GalNAc
Method in brief: as §1

[6] = biological target: GlcNAc(b1-4)Gal(b1-4)GlcNAc
Method in brief: as §1

[7] = biological target: GlcNAc(b1-4)GlcNAc
Method in brief: as §1

[8] = biological target: GlcNAc(b1-4)GlcNAc(b1-4)GlcNAc
Method in brief: as §1

[9] = biological target: GlcNAc(b1-4)GlcNAc(b1-4)GlcNAc(b1-4)GlcNAc(b1-4)GlcNAc
Method in brief: as §1

[10] = biological target: GlcNAc(b1-4)GlcNAc(b1-4)GlcNAc(b1-4)GlcNAc(b1-4)GlcNAc(b1-4)GlcNAc
Method in brief: as §1

[11] = biological target: GlcNAc(b1-4)[GlcNAc(b1-6)]GalNAc
Method in brief: as §1

[12] = biological target: GlcNAc(b1-6)Gal(b1-4)GlcNAc
Method in brief: as §1

[13] = biological target: GlcNAc(b1-6)GalNAc
Method in brief: as §1

[14] = biological target: GlcNAc6S(b1-3)Gal(b1-4)GlcNAc
Method in brief: as §1

[15] = biological target: Kdn(a2-3)Gal(b1-3)GalNAc
Method in brief: as §1

[16] = biological target: Kdn(a2-3)Gal(b1-3)GlcNAc
Method in brief: as §1

[17] = biological target: Kdn(a2-3)Gal(b1-4)Glc
Method in brief: as §1

[18] = biological target: Kdn(a2-3)Gal(b1-4)GlcNAc
Method in brief: as §1

[19] = biological target: Kdn(a2-3)Gal(b1-4)[Fuc(a1-3)]GlcNAc
Method in brief: as §1

[20] = biological target: Kdn(a2-6)Gal(b1-4)GlcNAc
Method in brief: as §1

[21] = biological target: Man(a1-2)Man(a1-2)Man(a1-3)Man
Method in brief: as §1

[22] = biological target: Man(a1-2)Man(a1-2)Man(a1-6)[Man(a1-3)]Man
Method in brief: as §1

[23] = biological target: Man(a1-2)Man(a1-3)Man
Method in brief: as §1

[24] = biological target: Man(a1-2)Man(a1-3)[Man(a1-2)Man(a1-6)]Man
Method in brief: as §1

[25] = biological target: Man(a1-2)Man(a1-3)[Man(a1-2)Man(a1-6)]Man(a1-6)[Man(a1-2)Man(a1-2)Man(a1-3)]Man
Method in brief: as §1

[26] = biological target: Man(a1-2)Man(a1-3)[Man(a1-2)Man(a1-6)]Man(a1-6)[Man(a1-2)Man(a1-2)Man(a1-3)]Man(b1-4)GlcNAc(b1-4)GlcNAc
Method in brief: as §1

[27] = biological target: Man(a1-2)Man(a1-3)[Man(a1-6)]Man(a1-6)[Man(a1-2)Man(a1-3)]Man(b1-4)GlcNAc(b1-4)GlcNAc
Method in brief: as §1

[28] = biological target: Man(a1-2)Man(a1-6)[Man(a1-3)]Man(a1-6)[Man(a1-2)Man(a1-2)Man(a1-3)]Man
Method in brief: as §1

[29] = biological target: Man(a1-2)Man(a1-6)[Man(a1-3)]Man(a1-6)[Man(a1-2)Man(a1-2)Man(a1-3)]Man(b1-4)GlcNAc(b1-4)GlcNAc
Method in brief: as §1

[30] = biological target: Man(a1-3)[Man(a1-6)]Man
Method in brief: as §1

[31] = biological target: Man(a1-3)[Man(a1-6)]Man(a1-6)[Man(a1-2)Man(a1-3)]Man(b1-4)GlcNAc(b1-4)GlcNAc
Method in brief: as §1

[32] = biological target: Man(a1-3)[Man(a1-6)]Man(a1-6)[Man(a1-3)]Man
Method in brief: as §1

[33] = biological target: Man(a1-3)[Man(a1-6)]Man(a1-6)[Man(a1-3)]Man(b1-4)GlcNAc(b1-4)GlcNAc
Method in brief: as §1

[34] = biological target: Man(a1-3)[Man(a1-6)]Man(b1-4)GlcNAc(b1-4)GlcNAc
Method in brief: as §1

[35] = biological target: Man(a1-3)[Man(a1-6)]Man(b1-4)GlcNAc(b1-4)[Fuc(a1-6)]GlcNAc
Method in brief: as §1

[36] = biological target: Man(a1-6)Man
Method in brief: as §1

[37] = biological target: Man(b1-4)GlcNAc
Method in brief: as §1

[38] = biological target: MurNAc(b1-4)GlcNAc
Method in brief: as §1

B1: DC-ASGPR L+GEE (Homo sapiens) (protein)
chain: MTRTYENFQYLENKVKVQGFKNGPLPLQSLLQRLRSGPCHLLLSLGLGLLLLVIICVVGFQNSKFQRDLVTLRTDFSNFTSNTVAEIQALTSQGSSLEETIASLKAEVEGFKQERQAGVSELQEHTTQKAHLGHCPHCPSVCVPVHSEMLLRVQQLVQDLKKLTCQVATLNNNGEEASTEGTCCPVNWVEHQDSCYWFSHSGMSWAEAEKYCQLKNAHLVVINSREEQNFVQKYLGSAYTWMGLSDPEGAWKWVDGTDYATGFQNWKPGQPDDWQGHGLGGGEDCAHFHPDGRWNDDVCQRPYHWVCEAGLGQTSQESH
- glycan array binding signal (z-score) [1]: -0.439
- glycan array binding signal (z-score) [2]: -0.363
- glycan array binding signal (z-score) [3]: -0.818
- glycan array binding signal (z-score) [4]: -0.85
- glycan array binding signal (z-score) [5]: -0.432
- glycan array binding signal (z-score) [6]: -0.38
- glycan array binding signal (z-score) [7]: -0.468
- glycan array binding signal (z-score) [8]: -0.556
- glycan array binding signal (z-score) [9]: 0.2
- glycan array binding signal (z-score) [10]: -0.834
- glycan array binding signal (z-score) [11]: -0.471
- glycan array binding signal (z-score) [12]: -0.162
- glycan array binding signal (z-score) [13]: 3.71
- glycan array binding signal (z-score) [14]: -0.225
- glycan array binding signal (z-score) [15]: -0.402
- glycan array binding signal (z-score) [16]: 0.041
- glycan array binding signal (z-score) [17]: -0.481
- glycan array binding signal (z-score) [18]: -0.074
- glycan array binding signal (z-score) [19]: -0.506
- glycan array binding signal (z-score) [20]: -0.08
- glycan array binding signal (z-score) [21]: -0.611
- glycan array binding signal (z-score) [22]: -0.725
- glycan array binding signal (z-score) [23]: -0.345
- glycan array binding signal (z-score) [24]: -0.348
- glycan array binding signal (z-score) [25]: 0.008
- glycan array binding signal (z-score) [26]: -0.745
- glycan array binding signal (z-score) [27]: -0.13
- glycan array binding signal (z-score) [28]: -0.688
- glycan array binding signal (z-score) [29]: -0.079
- glycan array binding signal (z-score) [30]: -0.211
- glycan array binding signal (z-score) [31]: 0.017
- glycan array binding signal (z-score) [32]: -0.404
- glycan array binding signal (z-score) [33]: -0.63
- glycan array binding signal (z-score) [34]: -0.574
- glycan array binding signal (z-score) [35]: 0.272
- glycan array binding signal (z-score) [36]: -0.554
- glycan array binding signal (z-score) [37]: -0.179
- glycan array binding signal (z-score) [38]: -0.441
